# Test results taken from PubChem BioAssay AID1347073 (National Center for Advancing Translational Sciences (NCATS), 2019).
# The whole screen tested about 45,000 compounds, of which about 200 (0.44%) were called active. Roughly 7% stayed inconclusive and do not appear here. Calls come from the whole dose curve; as a rule, active = well fitted activation curve with a large enough effect; inconclusive = small, poorly fitted or top-dose-only effect; inactive = no such curve, though single readings can be large or run the other way. This is one part of the list.
# Assay: qHTS of TDP-43 Inhibitors: NCGC Sytravon Library Screen; note: 0% is about no effect; nearly all actives have a fitted effect of over 55% in size
# Conditions: yeast TDP-43 toxicity rescue, BacTiter-Glo growth, 24 h; series mostly up to 46.1 µM; growth rescue (activation): at the top concentration
# Outline: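 TDP-43-expressing yeast, pregrown in raffinose, seeded at OD600 0.02 in galactose medium with compound for 24 hr at 30 deg C. Growth read by BacTiter-Glo luminescence, so rescue of toxicity appears as activation.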
row,SMILES,growth rescue (activation)
1,CCCc1nc2ccccc2n1CC(O)COc1ccc(C(=O)OC)cc1 (configuration not stated),inactive: 0.23%
2,Cc1c(C(=O)NC2CCCCC2)oc2ccc(F)cc12,inactive: 5.49%
3,COCCCN1C(=O)c2ccccc2CC1(C)C(=O)NC1CCCCC1 (configuration not stated),inactive: -6.75%
4,CC(NC(=O)COC(=O)CCc1nc(=O)c2ccccc2n1C)c1ccccc1 (configuration not stated),inactive: 13.9%
5,Cc1ccc(C2=NN(CC(=O)NCc3ccccn3)C(=O)CC2)cc1,inactive: 0.104%
6,COc1ccccc1NC(=O)CCc1nc(-c2cccs2)no1,inactive: 44.1%
7,COc1ccc(NS(=O)(=O)c2ccc(C(=O)Nc3c(C)n(C)n(-c4ccccc4)c3=O)cc2)cc1,inactive: -77.2%
8,O=[N+]([O-])c1cccc(-c2nnc3cccc(Cl)n23)c1,inactive: 23.2%
9,Cc1ccc(S(=O)(=O)N(C)C)cc1NC(=S)N1CCCCC1CO (configuration not stated),inactive: 3.96%
10,Cc1ccc(-n2nnnc2SCC(=O)NCC2(N3CCOCC3)CCCCC2)cc1,inactive: 6.64%
11,Cc1cc(NC(=O)c2sc(Nc3ccc(F)cc3)nc2N)no1,inactive: 10.5%
12,Clc1ccc2c(N/N=C/c3cccnc3)ccnc2c1,inactive: 9.83%
13,Cn1c(=O)[nH]c(=O)c2c1nc(SCC(=O)O)n2CCOc1ccccc1,inactive: 6.17%
14,CCCCCC(=O)Nc1ccc(S(=O)(=O)Nc2nccc(C)n2)cc1,inactive: -6.05%
15,COc1ccccc1OCCCOc1c(C)cc(C)cc1Br,inactive: 26.9%
16,O=C(Nc1ncc(Cc2ccccc2Cl)s1)c1ccc([N+](=O)[O-])cc1,inactive: 15.2%
17,O=C(CSc1nnc(-c2ccccc2Cl)o1)N1CCOCC1,inactive: 13.7%
18,O=C(CN1C(=O)C2C3C=CC(C4CC34)C2C1=O)Nc1cnc2ccccc2c1 (configuration not stated),inactive: 6.78%
19,CCOC(=O)c1c(N)sc(N)c1C(=O)OCC,inactive: -1.71%
20,COc1cccc(-n2c(=S)sc3c(=O)n(-c4ccccc4OC)c(SCC4OCCO4)nc32)c1,inactive: -5.69%
21,NS(=O)(=O)c1ccc(NC(=O)CCC(=O)N2CCOCC2)cc1,inactive: 1.95%
22,COc1cc(C)c(NC(=S)Nc2ccc(Cl)c(Cl)c2)cc1OC,inactive: 16.7%
23,COC(=O)c1sc(N)c(C(=O)OC)c1COC(=O)C12CC3CC(CC(O)(C3)C1)C2,inactive: 6.31%

row,SMILES,growth rescue (activation)
1,COCCN(C(=O)CCC(=O)Nc1cc(C)on1)C(C(=O)NC(C)(C)C)c1ccccc1Cl (configuration not stated),inactive: 14%
2,Cc1cccc(Nc2c3c(nc4nncn24)CCC3)c1,inactive: 25.2%
3,CCc1ccc(NC(=O)Nc2cccc(OC)c2)cc1,inactive: 14.2%
4,Cc1ccc(-c2cc(C(=O)NCCc3ccccc3)c3c(-c4ccc(C)cc4)[nH]nc3n2)cc1,inactive: 8.13%
5,O=C(N/C(=C\c1ccc(Cl)cc1)C(=O)N1CCCCC1)c1ccco1,inactive: 11.7%
6,CCN(CC)CCCN(Cc1cc2cc3c(cc2[nH]c1=O)OCO3)C(=S)Nc1ccccc1,inactive: 0.66%
7,COc1ccc(N2CCN(CCCNC(=O)C3CCN(S(=O)(=O)N4CCOCC4)CC3)CC2)cc1,inactive: 14%
8,O=C(COc1ccc(Br)cc1)Nc1ccc(NC(=O)c2ccccc2)cc1,inactive: -1.21%
9,CCCCN(C)CCNC(=O)c1cc2c(-c3cccc(OC)c3)nn(C)c2s1,inactive: 12.9%
10,COc1cc(/C=N/NC(=O)c2ccncc2)ccc1OCC(=O)Nc1cccc([N+](=O)[O-])c1,inactive: -8.08%
11,CC(=O)c1cccc(NC(=O)c2cc(=O)[nH]c3ccccc23)c1,inactive: 12.3%
12,CCOC(=O)c1sc(NC(=O)/C=C/c2c(F)cccc2Cl)nc1C,inactive: 14.3%
13,COc1ccc(-c2nnn(CC(=O)NCCc3ccc(OC)c(OC)c3)n2)cc1,inactive: 6.42%
14,C=CCN(CC=C)C(=O)CN1C(=O)NC(c2ccccc2)(c2ccccc2)C1=O,inactive: 7.86%
15,CCCCN(C)C(=O)CCC(=O)Nc1ccc2nc(N3CCN(C)CC3)cc(C)c2c1,inactive: 8.09%
16,CC1=C(C(=O)O)N2C(=O)C(NC(=O)c3ccccc3Cl)C2SC1 (configuration not stated),inactive: 1.36%
17,CC1=NN(c2ccccc2)C(=O)C1C(=O)c1ccccc1 (configuration not stated),inactive: 24.9%
18,O=C(c1ccc2c(c1)N(Cc1ccccc1)C(=O)c1ccccc1S2(=O)=O)N1CCN(c2ccccn2)CC1,inactive: 8.05%
19,COc1ccc(CC(=O)OC(C)CN2CCCCC2)cc1 (configuration not stated),inactive: -0.417%
20,CCSc1ncc(Cl)c(C(=O)Nc2c(C(=O)Nc3ccc(Cl)cc3)oc3ccccc23)n1,inactive: -4.22%
21,CC(C)N1CCC1(C)C(=O)Nc1cccc(C#N)c1 (configuration not stated),inactive: 1.45%
22,COCCn1c(=O)[nH]c2cc(C(=O)NCCc3ccc(S(N)(=O)=O)cc3)ccc2c1=O,inactive: 11.1%
23,COC(=O)[C@@H](Cc1c[nH]c2ccccc12)NC(=O)CNC(=O)c1ccccc1OC,inactive: 12.4%

row,SMILES,growth rescue (activation)
1,O=C(OCc1cc2ccccc2[nH]c1=O)C1CCCCC1,inactive: -16.1%
2,COc1ccc(/C=C/c2noc(-c3ccccc3O)n2)cc1,inactive: -28.8%
3,Cc1cc(C)cc(C(=O)NCC(=O)OCC(=O)N2c3ccccc3NC(=O)C2(C)C)c1,inactive: 6.5%
4,CN1CCN(C2=Nc3c(Cl)cc(Cl)c4cccc2c34)CC1,inactive: -18.4%
5,COc1ccc(C(=O)NCCN2C(=O)S/C(=C\c3cccnc3)C2=O)cc1[N+](=O)[O-],inactive: 3.56%
6,O=C(Nc1ccc(NC(=O)c2cccs2)cc1)c1ccc2ccccc2c1,inactive: 6.22%
7,CCC(=O)N(Cc1cc(=O)[nH]c2ccccc12)c1ccc(C)cc1,inactive: -12.7%
8,COc1ccc(NC(=O)CO/N=C(\C)c2cccs2)cc1,inactive: 18.7%
9,O=C1CCC(C(=O)Nc2cccc(S(=O)(=O)Nc3ccccc3F)c2)=NN1,inactive: -3.84%
10,O=C(NNC(=O)c1ccccc1Cl)c1ccco1,inactive: 0.53%
11,COc1ccc(C(C)=NNc2ccc([N+](=O)[O-])cc2S(=O)(=O)Nc2ccccc2C(=O)O)c(OC)c1,inactive: 23.3%
12,CCN1CCN(CC(=O)N2N=CCC2c2ccccc2)CC1 (configuration not stated),inactive: -11.1%
13,COc1ccc(NC(=O)c2cc(-c3cccs3)on2)c(OC)c1,inactive: -9.74%
14,COC(=O)c1ccc(C(=O)OC)c(NC(=O)CN2CCCCC2)c1,inactive: -3.38%
15,CC(C)CNS(=O)(=O)c1ccc(C(=O)Nc2ccc3c(c2)OCO3)cc1,inactive: 11.4%
16,CCN(C(=O)CSc1nnc(NCc2ccccc2)s1)C1CCS(=O)(=O)C1 (configuration not stated),inactive: -2.5%
17,Cc1ccc(-c2cc(N)on2)cc1,inactive: 14.2%
18,CCOC(=O)c1cnc2ccc(C(=O)OC)cc2c1Nc1ccc(C(=O)O)cc1,inactive: -2.13%
19,Cc1onc(-c2ccccc2Cl)c1C(=O)N1CCCCC1C (configuration not stated),inactive: -12%
20,Cn1c(N)c(C(=O)COC(=O)c2ccccc2C(=O)c2ccc(Cl)cc2)c(=O)n(C)c1=O,inactive: 7.59%
21,Cc1cc(C)c[n+](-c2nc3ccccc3nc2[N-]S(=O)(=O)c2ccc(Br)s2)c1,inactive: -5.46%
